# In ChEMBL document CHEMBL4888484, “Replenishing the malaria drug discovery pipeline: Screening and hit evaluation of the MMV Hit Generation Library 1 (HGL1) against asexual blood stage Plasmodium falciparum ,using a nano luciferase reporter read-out” (2022):
# Out of some 150,000 compounds screened, about 540 (0.36%) showed an effect of 50% or more. Some of the results follow.
# Test system: Plasmodium falciparum
# Test: Primary screen in NF54 nanoGlo assay, in single point, at 2uM, 72h; a lower Z score goes with more inhibition
# Format: functional, Erythrocyte
# Conditions: timepoint 72 hour
SMILES,% Inhibition [%],Z score
Cc1ccc([C@H]2N(c3ccc(Cl)c(Cl)c3)C(=O)[C@@H]3CCCN32)o1,-3,0.39
Cc1cc(NC(=O)c2ccc(F)c(Cl)c2)nc(=O)[nH]1,-6,0.57
CCc1nsc(N2CC3CCCC3C2)n1 (stereo unspecified),-2,0.31
CC(=O)N[C@@H]1CN(C(=O)c2c[nH]nc2-c2ccc(C)cc2C)C[C@H]1CO,-7,1.12
CC1CN(c2ccc(C#N)c(N)n2)CC(C2CC2)O1 (stereo unspecified),-3,0.56
CC(C)(CO)NC(=O)OCc1ccccc1,-10,1.31
O=C(NCCCOC1CCCC1)c1ccc2nc(C(F)(F)F)cn2c1,-11,1.72
CC(C)=CCN1C(=O)[C@@H]2CC[C@H]1CN(C(=O)c1ccc3[nH]nnc3c1)C2,-2,0.48
Cc1ccc(CN(Cc2ccccn2)C(=O)[C@@H]2CCC(=O)NC(=O)N2)s1,1,-0.12
CCOc1ccccc1CN1CCC(CC2CC2)(NS(C)(=O)=O)CC1,-4,0.77
CCCCNC(=O)NCCc1c[nH]c2ncccc12,0,-0.04
CC(C)c1ccc([C@H](C)NC(=O)C(=O)Nc2cnc3ccccc3c2)cc1,-4,0.59
Oc1cc(-c2ccc(F)cc2)nn1-c1nc2ccccc2[nH]1,36,-4.09
CNC(=O)NC(=O)CNC(C)(C)Cc1ccc(C(F)(F)F)cc1,-6,0.72
CCCC1(CCC)NC(=O)N(CC(=O)Nc2ccc3c(c2)OCCO3)C1=O,-18,3.18
CC(C)(C)C(=O)NCc1ccc(-c2ccoc2)o1,6,-0.82
COc1ccc(C(=O)N2CC(S(=O)(=O)N3CCc4ccccc43)C2)cn1,-10,1.27
O=C(O)C1C2C=CC(C2)C1C(=O)Nc1nc2ccccc2s1 (stereo unspecified),-20,2.56
CC(C)NC(=O)N(Cc1c(C(C)C)nn(-c2ccccc2)c1Oc1ccccc1F)CC1CC1,-14,1.3
COc1cc(C)c(S(=O)(=O)N2CCOCC(F)(F)C2)cc1Cl,-1,0.1
CC(C)(C)OC(=O)N1CC(NC(=O)c2ccoc2C2CC2)(C(N)=O)C1,-2,0.22
O=C(NCc1cccnc1)c1coc(CN(Cc2ccc(F)cc2)Cc2ccc(Cl)cc2Cl)n1,-33,2.9
NC(=O)Cc1nc(Cn2cnnn2)n(-c2ccc3c(c2)OCO3)n1,8,-1.27
CCCOCCN1CCN(c2ncnc3oc(C)nc23)CC1,-5,0.73
CNC(=O)[C@@H]1C[C@H](Oc2cccnc2)CN1C(=O)c1cccc(C#N)c1,-7,0.86
CCS(=O)(=O)Cc1ccc(NC(=O)N[C@H]2CCCN(C)C2=O)cc1,-8,1.31
CCc1noc(-c2ccc(=O)n(CC(=O)Nc3ccc(C)c(C)c3)c2)n1,2,-0.34

SMILES,% Inhibition [%],Z score
Cc1ccc(C(=O)N2CCCC(C(=O)N3CCCC(c4nnc5ccccn45)C3)C2)cc1 (stereo unspecified),-7,1.13
O=C(CCOc1ccccc1)N1CCOC[C@@H](O)C1,-31,2.85
COc1ccccc1CCN1Cc2cc(NC(=O)c3ccc(F)cc3)ccc2O[C@@H](C)C1=O,10,-1.09
CCC(NC(=O)N1CCS(=O)(=O)CC1C)c1cccc(Cl)c1 (stereo unspecified),0,-0.08
O=C(Nc1cn[nH]c1)c1cc(Br)c[nH]1,-26,2.4
O=C(C[C@H](c1ccc(F)cc1)c1cn(Cc2ccccc2)c2ccccc12)N1CCCC1,-7,0.68
COCC(=O)NC1CCN(c2nc(-c3cccnc3)cs2)CC1,6,-1.16
CC[C@@H](CNC(=O)N(C)Cc1c(C)noc1C)N1CCCC1,-13,2.45
CCN(CC)c1ccc(C(=O)Nc2cc(C(=O)Nc3ccccc3F)ccc2N2CC3CC(C2)c2cccc(=O)n2C3)cc1 (stereo unspecified),11,-1.26
C[C@]1(C(=O)O)CCN(C(=O)c2ccccc2OCC2CC2)C1,-2,0.31
COc1c(C)cc(C(=O)[C@H]2CCCN(CC(=O)Nc3cc(C)on3)C2)cc1C,6,-0.88
Cc1cccc(S(=O)(=O)Nc2nc(C(F)(F)F)c[nH]2)c1Br,18,-2.53
Cc1noc2ncc(C(=O)N3CCc4sccc4[C@@H]3C)cc12,3,-0.52
N#CCC(=O)NCCOc1cncc(Cl)c1,-1,0.17
Cc1ccc(-c2nccn2CCCNc2cccnc2)o1,-14,2.73
CC(C)CN(Cc1cccnc1)C1CN(C(=O)c2ccnn2C)C1,-4,0.74
CCc1nnc(-c2cccn2CC(=O)NCc2ccccc2)o1,-8,1.27
Cc1cc(C)c(CNC(=O)N(C)Cc2cscn2)c(=O)[nH]1,2,-0.16
CCc1ccc(-c2cc3c(=O)n(Cc4noc(CN5CCCC5)n4)ccn3n2)cc1,1,-0.1
CC1C(=O)N(CC(=O)N(C2CC2)C(C)C2CC2)C(=O)C1C (stereo unspecified),-2,0.39
COc1ccc(CNC(=O)C[C@@H]2C[C@H]3O[C@H](CNCc4ccccc4C(F)(F)F)[C@@H](O)[C@H]3O2)cc1,2,-0.22
CN(CC1CCCCC1O)C(=O)NCCc1cccc2cccnc12 (stereo unspecified),-16,3.1
Cc1cc(F)ccc1NC(=O)CCc1c(C)nn(-c2cc(N(C)C)ncn2)c1C,-5,1.01
Cc1[nH]c2c3c(F)cccc3nn2c(=O)c1CCC(=O)NCc1cccn1C,-16,2.29
Nc1nc2n(c1C(=O)c1ccc3c(c1)OCO3)CCC2,14,-1.4
O=C(NC[C@@H](O)CCc1ccccc1)c1coc(Br)c1,4,-0.48
